Experimental data reported in the supplement of paper PMC4967469.
Lines with a small IC50 respond at low doses; a fit beyond the top or the lowest dose is shown as a bound at that dose. AUC sums up the same curve from the lowest dose to the 256-fold higher top dose; it is 1 without any effect and falls as sensitivity rises. Where the top dose is marked as inferred, it is not printed in the source and was worked back from the curve model. Where an entry number is given, a second screen of the drug exists; the two often differ.

compound: NC(=O)[C@@H](CCC(F)(F)F)N(Cc1ccc(-c2ncon2)cc1F)S(=O)(=O)c1ccc(Cl)cc1 [BMS-708163]; assay: Viability of human cancer cell lines after 72 h of drug (GDSC screen); details: screen: GDSC drug entry 205; top dose inferred
Procedure: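 Human cancer cell lines in 384-well plates, medium with 10% serum, drug for 72 h over a 256-fold dose range (nine 2-fold or five 4-fold steps up to the top dose). Adherent lines were fixed and stained with the nucleic acid dye Syto60, suspension lines read with resazurin; signal relative to control wells, capped at 0 and 100%. One two-parameter sigmoid per drug and line, fitted in a mixed model over all curves with the slope shared within a line.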

Row | Cell Line | AUC | IC50
1 | SK-ES-1 (Ewing sarcoma, semi-adherent, top dose 10.24 µM) | 0.985 | > 10.2 µM
2 | HCC1428 (breast, adherent, top dose 10.24 µM) | 0.973 | > 10.2 µM
3 | RCC-JW (kidney, adherent, top dose 10.24 µM) | 0.936 | > 10.2 µM
4 | KON (head and neck, adherent, top dose 10.24 µM) | 0.987 | > 10.2 µM
5 | ChaGo-K-1 (non-small cell lung carcinoma, adherent, top dose 10.24 µM) | 0.985 | > 10.2 µM
6 | ES1 (Ewing sarcoma, adherent, top dose 10.24 µM) | 0.985 | > 10.2 µM
7 | FTC-133 (thyroid, adherent, top dose 10.24 µM) | 0.985 | > 10.2 µM
8 | EW-7 (Ewing sarcoma, semi-adherent, top dose 10.24 µM) | 0.963 | > 10.2 µM
9 | PANC-04-03 (pancreas, adherent, top dose 10.24 µM) | 0.978 | > 10.2 µM
10 | C3A (liver, adherent, top dose 10.24 µM) | 0.987 | > 10.2 µM
11 | TE-4 (oesophagus, adherent, top dose 10.24 µM) | 0.987 | > 10.2 µM
12 | RL95-2 (endometrium, adherent, top dose 10.24 µM) | 0.987 | > 10.2 µM
13 | SK-MEL-1 (melanoma, suspension, top dose 10.24 µM) | 0.993 | > 10.2 µM
14 | RMG-I (ovary, adherent, top dose 10.24 µM) | 0.971 | > 10.2 µM
15 | KM12 (large intestine, adherent, top dose 2.56 µM) | 0.986 | > 2.56 µM
16 | SNG-M (endometrium, adherent, top dose 10.24 µM) | 0.972 | > 10.2 µM
17 | LU-65 (large cell lung carcinoma, suspension, top dose 10.24 µM) | 0.985 | > 10.2 µM
18 | NALM-6 (B-cell leukaemia, suspension, top dose 10.24 µM) | 0.88 | 7.67 µM
19 | HSC-2 (head and neck, adherent, top dose 10.24 µM) | 0.989 | > 10.2 µM
20 | SW1116 (large intestine, adherent, top dose 10.24 µM) | 0.985 | > 10.2 µM
21 | BE-13 (lymphoblastic leukaemia, suspension, top dose 10.24 µM) | 0.987 | > 10.2 µM

Row | Cell Line | AUC | IC50
22 | MES-SA (uterus, adherent, top dose 10.24 µM) | 0.992 | > 10.2 µM
23 | Calu-3 (lung adenocarcinoma, adherent, top dose 10.24 µM) | 0.968 | > 10.2 µM
24 | OVK-18 (ovary, adherent, top dose 10.24 µM) | 0.986 | > 10.2 µM
25 | DOK (head and neck, adherent, top dose 10.24 µM) | 0.975 | > 10.2 µM
26 | HuO9 (osteosarcoma, adherent, top dose 10.24 µM) | 0.984 | > 10.2 µM
27 | SNU-423 (liver, adherent, top dose 10.24 µM) | 0.978 | > 10.2 µM
28 | SK-N-FI (neuroblastoma, adherent, top dose 10.24 µM) | 0.981 | > 10.2 µM
29 | MV-4-11 (leukaemia, suspension, top dose 10.24 µM) | 0.99 | > 10.2 µM
30 | SU-DHL-1 (anaplastic large cell lymphoma, suspension, top dose 10.24 µM) | 0.997 | > 10.2 µM
31 | CaR-1 (large intestine, adherent, top dose 10.24 µM) | 0.978 | > 10.2 µM
32 | MDA-MB-468 (breast, adherent, top dose 10.24 µM) | 0.988 | > 10.2 µM
33 | KU-19-19 (bladder, adherent, top dose 10.24 µM) | 0.987 | > 10.2 µM
34 | IST-MEL1 (melanoma, adherent, top dose 10.24 µM) | 0.973 | > 10.2 µM
35 | PEO1 (ovary, adherent, top dose 10.24 µM) | 0.984 | > 10.2 µM
36 | NCI-H1155 (large cell lung carcinoma, suspension, top dose 10.24 µM) | 0.993 | > 10.2 µM
37 | WM1552C (melanoma, adherent, top dose 10.24 µM) | 0.985 | > 10.2 µM
38 | DB (B-cell lymphoma, suspension, top dose 10.24 µM) | 0.983 | > 10.2 µM
39 | ABC-1 (lung adenocarcinoma, adherent, top dose 10.24 µM) | 0.983 | > 10.2 µM
40 | KGN (ovary, adherent, top dose 10.24 µM) | 0.953 | > 10.2 µM
41 | HCC1395 (breast, adherent, top dose 2.56 µM) | 0.982 | > 2.56 µM
